Data from PMC9911399, “Two distinct binding modes provide the RNA-binding protein RbFox with extraordinary sequence specificity”.
Substitutions are numbered along the chain they refer to; changes in the protein carry UniProt numbers. The list shows a part of the results.

T1: RBFOX1 RRM (Homo sapiens, UniProt Q9NWB1 109-208)
T1 sequence: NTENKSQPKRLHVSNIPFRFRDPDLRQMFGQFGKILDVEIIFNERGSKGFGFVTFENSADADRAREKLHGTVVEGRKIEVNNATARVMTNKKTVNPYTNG

B1: UCAAUAA (DNA:RNA)
RNA: GGGAGACCGGAAUUCAGAUUGUCCUCAAUAAUUAAAUCCCGUCGUAGCCACCA
DNA 1: CAATCTGAATTCCGGTCTCCC
DNA 2: TGGTGGCTACGACGGGATT
B2: UCCGAUA (DNA:RNA)
RNA: B1 RNA with A27C, A28G, U29A, A30U
DNA 1: CAATCTGAATTCCGGTCTCCC
DNA 2: TGGTGGCTACGACGGGATT
B3: GUUCUAU (DNA:RNA)
RNA: B1 RNA with U25G, C26U, A27U, A28C, A31U
DNA 1: CAATCTGAATTCCGGTCTCCC
DNA 2: TGGTGGCTACGACGGGATT
B4: AAAUGGC (DNA:RNA)
RNA: B1 RNA with U25A, C26A, A28U, U29G, A30G, A31C
DNA 1: CAATCTGAATTCCGGTCTCCC
DNA 2: TGGTGGCTACGACGGGATT
B5: GCGUGAA (DNA:RNA)
RNA: B1 RNA with U25G, A27G, A28U, U29G
DNA 1: CAATCTGAATTCCGGTCTCCC
DNA 2: TGGTGGCTACGACGGGATT
B6: GCGGCGG (DNA:RNA)
RNA: B1 RNA with U25G, A27G, A28G, U29C, A30G, A31G
DNA 1: CAATCTGAATTCCGGTCTCCC
DNA 2: TGGTGGCTACGACGGGATT
B7: UGAAGCC (DNA:RNA)
RNA: B1 RNA with C26G, U29G, A30C, A31C
DNA 1: CAATCTGAATTCCGGTCTCCC
DNA 2: TGGTGGCTACGACGGGATT
B8: UGGCUUG (DNA:RNA)
RNA: B1 RNA with C26G, A27G, A28C, A30U, A31G
DNA 1: CAATCTGAATTCCGGTCTCCC
DNA 2: TGGTGGCTACGACGGGATT
B9: AAUUCAG (DNA:RNA)
RNA: B1 RNA with U25A, C26A, A27U, A28U, U29C, A31G
DNA 1: CAATCTGAATTCCGGTCTCCC
DNA 2: TGGTGGCTACGACGGGATT

The binders below were run against T1, RBFOX1 RRM (assay: EMSA; HiTS-Eq, 1 nM pool, 10 min; buffer printed only for the single-RNA assays: 10 mM Tris pH 7.5, 150 mM NaCl, 3.4 mM EDTA, 0.001% NP-40, 30 C). Conditions: tags: His6 N-terminal (pET28a); label: 5' 32P.
Method in brief: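 Purified RbFox RRM, wild type or mutant, was incubated for 10 min in 50 µL with 1 nM of a 5′-radiolabelled RNA pool carrying 7 randomized nucleotides, whose flanks were annealed to DNA oligonucleotides, over a series of increasing protein concentrations. Unbound RNA was resolved on 8% native PAGE, cut out, reverse-transcribed, barcoded by PCR and sequenced on an Illumina HiSeq 2500. Relative association constants were derived from changes in read counts for each RNA species versus the control reaction and normalised to the cognate motif.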
In the case of B1, the binding signal is reported as 0.00079 KA relative to UGCAUGU.
With B2 the binding signal was 0.00441 KA relative to UGCAUGU.
With B3 the binding signal was 0.00908 KA relative to UGCAUGU.
In the case of B4, the binding signal is reported as 0.00657 KA relative to UGCAUGU.
With B5 the binding signal was 0.0114 KA relative to UGCAUGU.
In the case of B6, the binding signal is reported as 0.0288 KA relative to UGCAUGU.
B7 was tested, and the binding signal was 0.0111 KA relative to UGCAUGU.
B8 was tested, and the binding signal was 0.0526 KA relative to UGCAUGU.
B9 was tested, and the binding signal was 0.00854 KA relative to UGCAUGU.
